The series is described as follows: Rapa encapsulation and release from ELP nanoparticles, dialysis under sink conditions, RP-HPLC. It counts as physicochemical. The procedure: Dialysis under sink conditions was used track the loss of Rapa from the nanoparticles. Mean±SD (n=3).
A two phase method was developed to encapsulate Rapa into the ELP nanoparticles. An aqueous phase PBS containing S48I48 or FKBP-S48I48 was mixed with an organic phase hexane/EtOH containing Rapa in a small glass vial. The vial was kept stirred and heated up to the CMT of S48I48 or FKBP-S48I48. A nitrogen flow was applied to facilitate the evaporation of the hexane/EtOH phase. A 13.2K 10 min centrifugation was performed to remove the insoluble Rapa after the organic phase evaporated out. 100 μL of the sample was filtered and injected into a C-18 reverse phase HPLC column to analyze the amount of the Rapa that was initially encapsulated. Rapa releasing experiment was performed under a sink condition of H2O dialysis. Samples were collected in the dialysis cassette at time points of 0 h, 1 h, 2 h, 4 h, 6 h, 9 h, 19.5 h, 27 h, 31 h and 48 h. RP-HPLC was used to determine the amount of Rapa that was retained inside the ELP nanoparticle core.

One molecule from patent US20150209335A1, “METHODS AND SMALL MOLECULE THERAPEUTICS COMPRISING FUSED ELPS” (UNIVERSITY OF SOUTHERN CALIFORNIA, priority 2012, published 2015) can be followed below.

B1: FKBP-S48I48: fusion protein: FKBP inserted at N-terminus of ELP diblock copolymer S48I48; assembles nanoparticles above CMT (protein)
chain: [about 100 residues skipped]GVPGSGVPGSGVPGSGVPGSGVPGSGVPGSGVPGSGVPGSGVPGSGVPGSGVPGSGVPGSGVPGSGVPGSGVPGSGVPGSGVPGSGVPGSGVPGSGVPGSGVPGSGVPGSGVPGSGVPGSGVPGSGVPGSGVPGSGVPGSGVPGSGVPGSGVPGSGVPGSGVPGSGVPGSGVPGSGVPGSGVPGSGVPGSGVPGSGVPGSGVPGSGVPGSGVPGSGVPGSGVPGSGVPGSGVPGSGVPGSGVPGIGVPGIGVPGIGVPGIGVPGIGVPGIGVPGIGVPGIGVPGIGVPGIGVPGIGVPGIGVPGIGVPGIGVPGIGVPGIGVPGIGVPGIGVPGIGVPGIGVPGIGVPGIGVPGIGVPGIGVPGIGVPGIGVPGIGVPGIGVPGIGVPGIGVPGIGVPGIGVPGIGVPGIGVPGIGVPGIGVPGIGVPGIGVPGIGVPGIGVPGIGVPGIGVPGIGVPGIGVPGIGVPGIGVPGIGVPGIGY
For the molecule B1, where the note is “FKBP-S48I48 nanoparticles”, the “share of rapamycin bound to FKBP domain” value is on record as “about 30%” and the “share of rapamycin encapsulated in nanoparticle core” value was “about 70%”. The “releasing half-time of rapamycin bound to FKBP” value (dialysis, FKBP-bound population) stood at 58 h. The “releasing half-time of rapamycin encapsulated in nanoparticle core” value (dialysis, core-entrapped population) was “about 2 hrs”.
